# In publication PMC12040169 (PLOS Biology, 2025):
# This is one part of the list.
# Test system: T1, C. trachomatis L2/434/Bu expressing GFP (CTL2-GFP)
# T1 construct: L2/434/Bu GFP intracellular growth in HeLa cells
# Design: species or system HeLa; C. trachomatis total inclusion area by high-content imaging, normalised to DMSO
# Details: total inclusion area; 28.5 h, 10 µM; inhibitor
# Method in brief: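 High-content imaging followed the bulk GFP/resorufin measurement: fixed, Hoechst-stained cells were scored for GFP inclusions and host nuclei per well. Total inclusion area and count served as growth proxies, nuclei number as the viability proxy. MIC calculation matched the bulk assay.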
row,Structure (SMILES),% of control remaining
1,COc1cccc(CS(=O)(=O)c2c(Br)sc3ccnc(N4CCNCC4)c23)c1 [CBK038956C],93.8115
2,O=C(c1ccc(NS(=O)(=O)c2ccccc2)cc1)N1CCN(Cc2ccc3c(c2)OCO3)CC1 [CBK267957],87.1722
3,CC1=NN(c2nc(-c3ccc(Br)cc3)cs2)C(=O)C1/N=N/c1ccc(C(=O)O)cc1 (stereo not shown) [CBK262435],97.844
4,O=C(O)c1ccc(OCCNS(=O)(=O)c2ccc3ccccc3c2)cc1 [CBK299807],80.7682
5,O=C(c1ccco1)N1CCC2(CCCNC2)C1 (stereo not shown) [CBK153233C],103.983
6,O=C(Nc1ccc2c(c1)oc1ccccc12)C1CCCO1 (stereo not shown) [CBK270168],94.5498
7,COc1ccc(NC(=O)CSc2nnc(N)s2)cc1 [CBK058635],73.1069
8,O=c1[nH]cc(-c2ccccc2)cc1CNc1cccc2ncccc12 [CBK284771],40.8674
9,CS(=O)(=O)c1ccc(-c2cnc(N)c(NC3CCC(O)CC3)n2)cc1 (stereo not shown) [CBK063865],97.8888
10,COc1cc(NC(=O)c2cccnc2)c(Cl)cc1NC(=O)c1ccc(Cl)cc1 [CBK033522],102.577
11,Cc1ccccc1OCc1nn2c(C)nnc2s1 [CBK269220],78.1426
12,Cc1c(NC(=O)CCCC(=O)O)c(=O)n(-c2ccccc2)n1C [CBK286532],106.112
13,Cc1nc(CSc2nc3sc4c(c3c(=O)n2-c2ccccc2)CCCCC4)cs1 [CBK265706],103.157
14,O=C1N[C@@]2(CC3CCC2CC3C(=O)N2CCCC2)Nc2ccccc21 (stereo partly shown) [CBK284449],95.6091
15,COc1cc(C(=O)NCC(=O)O)cc(OC)c1OC [CBK261039],98.7508
16,Cc1ccc(NS(=O)(=O)c2ccc(NC(=O)c3ccc(CN4CCOCC4)cc3)cc2)c(C)c1 [CBK264815],102.009
17,COc1ccc2nc(NC(=O)c3ccc4ncsc4c3)sc2c1 [CBK287364],77.3773
18,COC(=O)c1nn(-c2ccccc2)c2cc([N+](=O)[O-])ccc12 [CBK115321],90.6336
19,O=C1CN=C(N2C(=O)C3C4C=CC(C4)C3C2=O)C(=O)N1 (stereo not shown) [CBK028818],92.7685
20,COc1ccc([C@@]23CC[C@@H](NC(=O)Nc4cc(F)c(F)c(F)c4)C[C@@H]2N(C)CC3)c(F)c1OC [CBK073909T],78.3249
21,CC(C(=O)N(C)C)n1cccc1 (stereo not shown) [CBK012421],87.4656
22,CCC(c1ccc2ccccc2c1)c1c(O)c2ccccc2oc1=O (stereo not shown) [CBK016681],81.7795
23,O=C(O)CC(NS(=O)(=O)c1cccc2nsnc12)C(=O)O (stereo not shown) [CBK073316],98.3342
24,O=C(O)c1cccc2c3c([nH]c12)CCCCC3 [CBK003451],101.909
25,O=C(Cc1cccs1)NCCc1c[nH]cn1 [CBK269805],80.0353
26,O=C1CC(c2ccccc2)CC(NCc2ccc3c(c2)OCO3)=C1C(=S)Nc1ccccc1 (stereo not shown) [CBK264890],98.015

row,Structure (SMILES),% of control remaining
1,COCCn1cnnc1CCNC(=O)Cc1cccc(O)c1 [CBK307322],79.4399
2,CC1=NN(c2ccc([N+](=O)[O-])cc2)C(=O)/C1=C\NCCN1CCN(C(=O)c2ccc(Br)cc2)CC1 [CBK261788],92.5783
3,Cc1nc2ccccc2c(=O)n1CC(N)=O [CBK004145],26.5029
4,O=C(Cn1c(-c2cccs2)cc2cccnc21)N1CCC(O)CC1 [CBK282458],81.4919
5,CCOc1ccc(NC(=O)C2CC=CCC2C(=O)O)cc1 (stereo not shown) [CBK274682],92.647
6,Cc1ccc(CNC(=O)Cn2nnc(-c3ccc(CN4CCCC(C(F)(F)F)C4)cc3)n2)cc1 (stereo not shown) [CBK144562C],96.0462
7,COc1ccc(NC(=O)CSc2ncnc3ccccc23)cc1 [CBK270215],83.9855
8,CC(C)(CO)NC(=O)c1cc(S(=O)(=O)N2CCOCC2)ccc1Cl [CBK269748],56.3086
9,O=C(CSCc1cccc(Br)c1)Nc1cccc2cccnc12 [CBK261204],103.923
10,Nc1ncc2cc(C(F)(F)F)ccc2n1 [CBK100705],99.7678
11,Oc1ccc(/N=C/C=C/c2ccc(Cl)cc2Cl)cc1-c1nc2ccccc2s1 [CBK261242],82.2199
12,N#Cc1ccc(N2CCN(CCCNC(=O)Nc3ccccc3)CC2)cc1 [CBK267861],108.808
13,CNC(=S)NNC(=O)CN1CCSCC1 [CBK262444],77.4023
14,Cc1ccc(C2CC(c3cccnc3)Nc3nnnn32)cc1 (stereo not shown) [CBK288067],86.7884
15,c1ccc2c(OCc3nc4ccccc4[nH]3)cccc2c1 [CBK262969],53.003
16,O=[N+]([O-])c1cc(C(F)(F)F)ccc1NC(CO)(CO)CO [CBK261838],88.558
17,Cc1nc(-c2ccccc2)sc1CNC(=O)c1ccc([N+](=O)[O-])o1 [CBK092352],6.856
18,CCOC(=O)C1(C2CCCCC2)CCN(C(=O)c2ccc(S(N)(=O)=O)cc2)CC1 [CBK137105],101.955
19,CCCc1cc(C(=O)OC)c(NC(=O)C2CC=CCC2C(=O)O)s1 (stereo not shown) [CBK265397],89.6435
20,CN1[C@@H]2CC[C@H]1C[C@@H](N1Cc3cc4ccccc4n3C1=O)C2 [CBK017722],47.0062
21,Nc1cc(N)nc(SCc2ccccc2)n1 [CBK261266],78.7096
22,Cc1ccc(C)c(NC(=O)CCNC(=O)c2cnn3cc(C)cnc23)c1 [CBK306590],69.9685
23,N#Cc1ccc(CN2CCCN(C(=O)c3cccc(F)c3)CC2)cc1 [CBK304010],88.6472
24,Cc1noc(C)c1CCC(=O)N1CC[C@H]2NC(=O)c3ccccc3OCCCCC[C@H]2C1 [CBK292036],83.0299
25,O=c1nc(NS(=O)(=O)c2ccccc2Br)c(F)c[nH]1 [CBK067573],84.2203
26,CCOc1ccc2[nH]c(C(=O)NC3CCCN(C)C3)c(C)c2c1 (stereo not shown) [CBK282530],84.3951
